Measured values: publication PMC5379148, “A phase I study of intravenous and oral rucaparib in combination with chemotherapy in patients with advanced solid tumours” (British Journal of Cancer, 2017)

Test system: patients with advanced solid tumours
Settings: treatment-emergent, any grade; All patients (N=85), all arms

## CNCc1ccc(-c2[nH]c3cc(F)cc4c3c2CCNC4=O)cc1 [rucaparib]
  Abdominal pain: 19 (22.4) n (%)
  Abdominal pain upper: 8 (9.4) n (%)
  Alopecia: 15 (17.6) n (%)
  Anaemia: 34 (40.0) n (%)
  Arthralgia: 11 (12.9) n (%)
  Asthenia: 4 (4.7) n (%)
  Back pain: 15 (17.6) n (%)
  Constipation: 42 (49.4) n (%)
  Cough: 16 (18.8) n (%)
  Decreased appetite: 23 (27.1) n (%)
  Diarrhoea: 33 (38.8) n (%)
  Dyspepsia: 12 (14.1) n (%)
  Dyspnoea: 19 (22.4) n (%)
  Epistaxis: 6 (7.1) n (%)
  Fatigue: 53 (62.4) n (%)
  Headache: 19 (22.4) n (%)
  Influenza-like illness: 4 (4.7) n (%)
  Insomnia: 9 (10.6) n (%)
  Nausea: 58 (68.2) n (%)
  Neutropenia: 34 (40.0) n (%)
  Oral candidiasis: 11 (12.9) n (%)
  Pyrexia: 14 (16.5) n (%)
  Tachycardia: 6 (7.1) n (%)
  Thrombocytopenia: 29 (34.1) n (%)
  Vomiting: 38 (44.7) n (%)
